Data reported in PubChem BioAssay AID485281 (National Center for Advancing Translational Sciences (NCATS), 2010).
In all, about 350,000 compounds went through this assay and about 260 (0.074%) were called active. Inconclusive results, whose numbers are uncertain, are shown with a selection of clear calls. Calls follow the shape of the dose curve; as a rule, active = well fitted inhibition curve with a large enough effect; inconclusive = small, poorly fitted or top-dose-only effect; inactive = no such curve, though single readings can be large or run the other way. A potency beside an inconclusive call is a rough fit, not a confirmed value.
% is scaled to controls: 0 for no effect and ±100 for the full control effect; potency is read from the fitted curve at half-maximal effect; tags tell the direction and shape of the fitted curve.
Also: nearly all actives have a fitted effect of over 20% in size.

What follows are compounds tested against Ferritin light chain (Equus caballus) (UniProt P02791) (assay: qHTS Assay for Identification of Novel General Anesthetics). Settings: apoferritin/1-aminoanthracene competitive binding, fluorescence; activity change, negative = displacement: at 77.5 µM (top of the series).
Chain of UniProt P02791 (P02791 whole entry, looked up): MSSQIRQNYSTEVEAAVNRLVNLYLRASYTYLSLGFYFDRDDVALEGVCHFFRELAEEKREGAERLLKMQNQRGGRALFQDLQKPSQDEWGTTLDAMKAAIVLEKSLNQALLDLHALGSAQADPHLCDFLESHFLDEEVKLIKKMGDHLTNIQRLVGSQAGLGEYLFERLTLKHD
In short: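 Apoferritin-based anesthetic binding model; compound displacement of fluorescent 1-AMA measured as endpoint fluorescence after 10 minutes at room temperature, scaled to free-ligand and complex controls.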
In the case of `N#CC(C#N)=Cc1cc(O)c(O)c([N+](=O)[O-])c1`, the Potency is reported as inconclusive: 28.2 µM [inhibitor, partial curve].
With `COc1ccc(N2C(=O)NC(=O)/C(=C\c3cn(CC(=O)N4CCOCC4)c4ccccc34)C2=O)c(OC)c1` the Potency was inconclusive: 25.1 µM [inhibitor, partial curve].
For `CN1CCN2c3ccc(N)cc3CC3(C(=O)NC(=O)NC3=O)C2C1` (centres undefined), the “activity change, negative = displacement” value was inactive: -2.67%.
`Nc1ccccc1C(=O)OCc1ccc([N+](=O)[O-])cc1` was tested, and the Potency was inconclusive: 14.1 µM [inhibitor, partial curve].
For `CN(C)c1ccc(/C=C2\CCCN=C2c2cccnc2)cc1`, the “activity change, negative = displacement” value was inactive: 1.63%.
With `C[N+]12CCC(CC1)C(=C(c1ccccc1)c1ccccc1)C2` the “activity change, negative = displacement” value was inactive: -4.11%.
For `CN(C(=O)Oc1ccc(Cl)c2cccnc12)c1ccccc1`, the Potency was inconclusive: 50.1 µM [inhibitor, single point].
With `CCNC(=O)O/N=C(\C)c1sc(-c2ccccc2)nc1C` the Potency was inconclusive: 39.8 µM [inhibitor, partial curve].
`N[C@@H](Cc1c[nH]c2ccccc12)c1nnc(SCc2ccccc2F)o1` was tested, and the Potency was inconclusive: 28.2 µM [inhibitor, partial curve].
For `CC(=O)O[C@@]12CO[C@@H]1C[C@H](O)[C@@]1(C)C(=O)[C@H](O)C3=C(C)[C@@H](OC(=O)[C@H](O)[C@@H](NC(=O)c4ccccc4)c4ccccc4)C[C@@](O)([C@@H](OC(=O)c4ccccc4)C12)C3(C)C` (some centres undefined), the Potency was inconclusive: 14.1 µM [inhibitor, partial curve].
With `CCOc1ccccc1N=C1SCCCN1C` the “activity change, negative = displacement” value was inactive: -8.02%.
With `CNC(=O)Oc1cccc2ccccc12` the Potency was inconclusive: 31.6 µM [inhibitor, single point].
`O=c1[nH]c(=O)n(C2CCCCC2)c(O)c1C1=Nc2ccccc2SC(c2ccc(Cl)cc2)C1` (centres undefined) was tested, and the Potency was inconclusive: 44.7 µM [inhibitor, single point].
`O=C1Nc2ccccc2/C1=C/c1cnc[nH]1` was tested, and the “activity change, negative = displacement” value was inactive: -22.2%.
`COC(=O)C(C)Oc1cc(C)cc2oc(=O)c3c(c12)CCC3` (centres undefined) was tested, and the Potency was inconclusive: 20 µM [inhibitor, partial curve].
For `Cc1nnc(NCc2ccccc2)c2c1nnn2Cc1ccc(F)cc1`, the Potency was inconclusive: 1.78 µM [inhibitor, full curve].
With `c1ccc2c(c1)CNc1ccccc1O2` the Potency was inconclusive: 28.2 µM [inhibitor, partial curve].
With `Cc1ccccc1-n1c(O)c(C=Nc2ccc(N(C)C)cc2)c(=O)[nH]c1=O` the Potency was inconclusive: 22.4 µM [inhibitor, partial curve].
For `C#CCN1C(=O)C2(C(C#N)=C(N)OC(C)=C2C(=O)OCc2ccccc2)c2ccccc21` (centres undefined), the Potency was inconclusive: 22.4 µM [inhibitor, partial curve].
